From the supplement of paper PMC11417369
± gives the standard deviation of the averaged measurements. Some of the results follow.

test system: PfAP2-G AP2 domain (GST-tagged); assay: gcPBM binding intensity (ln(normalized median fluorescence intensity)); higher = stronger DNA binding
Method in brief: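 Plasmodium falciparum DNA-binding domains carrying a GST tag were expressed in E. coli and applied for 1 h, at about 25 μg on average, to an Agilent 4 × 180k array. The array held primer-extended double-stranded 36-bp intergenic genomic probes together with negative controls, and binding took place in 1× PBS with 1% milk, 0.2 mg/ml BSA, 0.5% salmon testes DNA and 0.03% Triton X-100. An Alexa488 anti-GST antibody detected bound protein, and the array was scanned at 488 nm. Binding intensity is taken as the highest Masliner-normalised natural-log median intensity across replicate spots of either probe orientation.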

Sequence	gcPBM binding intensity (ln)
AATTTCTTCTTAGGGTGTACAATTTGACATAAGGAA [XGTACX_site1773]	11.3 ± 0.74
GTAATATATATTAAGTAATAGTTTATCTTAGGAAAA [TGCATGCA_negctrl_site302]	9.76 ± 0.028
ATATATATATATTGTACACACATTTATGCATATATA [CACACA_site5738]	11.4 ± 0.63
TTTTTTTGCATTTCATGTACATATATTGAGCTTAAA [XGTACX_site8485]	11.3 ± 0.76
TTTAAATATATATATTGTACAAAAAAAAATAATAAA [XGTACX_site4759]	10.9 ± 0.41
ATAAAATTTATGACTTGTACATGTAAATAAAATATA [XGTACX_site762]	11.1 ± 0.73
TGTAGAACTCAATATTGTACATTATATAAAATGGGA [XGTACX_site3857]	10.8 ± 0.45
TTCCCTATCTTTTCAGTGCATTTTGTTTCCTACCTT [GTGCAC_site9813]	10.2 ± 0.11
CTTCTTGTAAAATTTGCATGTAATTAAAAGAGAATG [TGCATGCA_site484]	10.2 ± 0.3
GCCTTTTAGTATTTCACACACGTAAATGAGTATATC [CACACA_site4748]	10.2 ± 0.18
AAAAAATTAAAAATCACACATAAATATATATAAAAA [CACACA_site4192]	9.64 ± 0.27
TAATGAAGCTTATGCACACGTTCATTATTTATATTA [CACACA_site3219]	9.98 ± 0.028
ATAAAGAATATAAATACACACTTAAATATAGATTAT [CACACA_site7804]	9.79 ± 0.14
ATTGGTTCCCCTCTCTTTTCAATATATTTTTTTTTT [XGTACX_negctrl_site259]	10.2 ± 0.27
GATATAGGGCGTATGTTAATCGTGAAAGAGTGTCTT [GTGCAC_negctrl_site102]	10.2 ± 0.14
TTCAAATGATTTATGTGTACATAAAATTATTTTTTA [XGTACX_site107]	11.5 ± 1.1
ATATTACAGTACAATACATGCATATGGAAAAAAAAA [TGCATGCA_site72]	11 ± 0.79
AATAAATATATATTCACACACAAACATATATATATA [CACACA_site4023]	10.1 ± 0.45
TTTATAATTTATATCACACACATATATATATAGTAA [CACACA_site8]	9.88 ± 0.12
AAATAAATAAATAAATAAACAAATATGTATAAATGG [XGTACX_negctrl_site153]	9.92 ± 0.014
AGGTACTTTTTTAAAACACACATATAATAAATACAC [CACACA_site4730]	11.3 ± 1.1
CATTTTGTTTTAAAGTGTACATTATGTAATATAAAA [XGTACX_site647]	11.3 ± 0.82

Sequence	gcPBM binding intensity (ln)
ATTTATATTACCCTTGCATGTAGGTGCAATTTTTTT [TGCATGCA_site757]	10.2 ± 0.19
TTTTTATAGGTAAAAACACACGCTAAAAATAATTAA [CACACA_site3731]	10.2 ± 0.13
TTTTTTAGATTACATAAATATAAATATAAATATATA [GTGCAC_negctrl_site459]	9.485 ± 0.092
ATAAGATTAAACATTGCACACAGAAATATATTTTCT [CACACA_site8743]	9.93 ± 0.15
CCTATATAATATATTTGTACTTAATAATTAAAGTGT [XGTACX_site5151]	11.1 ± 0.69
TATATATATATATATTGTACATATGTAACCTTTTAA [XGTACX_site3914]	10.9 ± 0.72
TATCAAAATTAGTATACACACAAAATTAATCAAATA [CACACA_site7117]	10.1 ± 0.28
TCAACTATCAATATAGTGCATTTTTTTTGGAAAACC [GTGCAC_site9927]	9.985 ± 0.049
TTTTTTTTTTTTTGTAGTACATTATGTATATTTTTA [XGTACX_site7810]	11.3 ± 1
TTAATAAGAGAGCAATAGGTGGACTGTTTCTTTTAT [CACACA_negctrl_site1239]	10.8 ± 0.6
GTTAAAATAATATGGTGTACAAATATATAAGTTCAT [XGTACX_site3262]	11.4 ± 0.79
TAAAATAAAAATTTATGTACACATAAAAAAACAAAA [XGTACX_site1112]	11.5 ± 0.94
GAGAGTACCTATATTGCATGCAGACTTTTTAAATAT [TGCATGCA_site564]	11 ± 0.55
ATATATATATATAAAAGTACTTATTTTTATTTACAT [XGTACX_site4299]	11.2 ± 0.71
GATACTCTCTTTTAATGTACAAAATTTTAAAAATTA [XGTACX_site1781]	10.8 ± 0.52
TATAAAAAAAAAAAAAGTACTTAAATATAAATAAAT [XGTACX_site5052]	11.4 ± 0.8
TGTTTATACAATATTTGTACATATATTTTTATTTTT [XGTACX_site4104]	10.9 ± 0.59
TTTTAAATAAAAAAATTAAATTAAAATATATAAAAA [XGTACX_negctrl_site490]	9.69 ± 0.25
CATTTTTACAACGTTGCACACTTCAAAAGGTTTACA [CACACA_site2760]	10.3 ± 0.16
GTTCCATGAGTATATACATGCATATATCTAGTTTAT [TGCATGCA_site388]	10.1 ± 0.035
TACCCTCGTATATATATACACACTAAAATACAGACA [CACACA_site4154]	10.2 ± 0.28
ATTCATTCATATGTTACACACACACCCACCCATAAA [CACACA_site9066]	10.5 ± 0.34

Sequence	gcPBM binding intensity (ln)
AATTAAAAAAAATACACACACACATACCCATATATA [CACACA_site5767]	10.2 ± 0.16
AATGATATATTATAAACACACAAAGATGAATATATA [CACACA_site2818]	9.77 ± 0.22
TATGTACAGACATATACACACCTCTATAATCTATAT [CACACA_site6482]	10.8 ± 0.63
CTAAAGTAAATTTAAGCACACACAACGAATTTTTAT [CACACA_site8599]	10.15 ± 0.035
AATTTATGTTTTAAAAGTACTTTTCTAATTTATAAA [XGTACX_site1593]	11.1 ± 0.72
TCCCTTTGTATATATATATAAATATATATATATATA [CACACA_negctrl_site157]	9.87 ± 0.14
CATTAAAATGGTAAATGTACATATCCATCTTCTCAC [XGTACX_site4636]	11.1 ± 0.6
TTTATCGAATATAATAGTACATAAAAAAAAAAAAAA [XGTACX_site1734]	11.1 ± 1.1
AGATTATATAAAAAAGTGCATATTTTCATTTTTTTT [GTGCAC_site9448]	9.98 ± 0.18
ACATTTTTTTTGTGAGTCTTTGCGGCATCAAAATTT [XGTACX_negctrl_site348]	10.2 ± 0.29
AAAAAAGAAAAAAACTGTACATGATAAATATTTATT [XGTACX_site7270]	10.9 ± 0.45
TTATGAAGCAGACATGCATGTTATGGCTTAAATAAT [TGCATGCA_site492]	9.79 ± 0.13
ATTATGTTTCTTTTTTTTTTTAAAGGATGTCTTTTT [CACACA_negctrl_site974]	9.855 ± 0.007
TATAAATATATATACACACACATATATATTATATAT [CACACA_site596]	9.99 ± 0.11
AAAAAATGATAATATACACACTTATGGGAGAGCGCA [CACACA_site5398]	9.86 ± 0.057
TTTAAGCAAAAACACACACACATATATATATATATA [CACACA_site349]	10.1 ± 0.54
TATTTAATACGGACTCATAAATCTTAATAAAAAAAA [CACACA_negctrl_site434]	10.7 ± 0.71
AATATTAAACAAAATAAATATATAAAAAATAAATAA [GTGCAC_negctrl_site93]	9.77
AAGTTATATTTGTGTACACATAATTTTATACTAATA [CACACA_site5553]	11.6 ± 0.76
GACATATATATAAAATGTACATATATATTTACATAT [XGTACX_site7822]	11 ± 0.64
TTATTTATAAACATATGTACTAATACATGATTAACA [XGTACX_site7645]	11 ± 0.72
TGTTCTTTATTTTATTGTACTTTTAAAATTCCTTTA [XGTACX_site8058]	11.5 ± 0.86

Sequence	gcPBM binding intensity (ln)
TGATAATAAGCATACACACACACACTAGAAAAAAAA [CACACA_site4558]	10.01 ± 0.099
TATTATAATAAGAAGTGTACGTGTTTTTATAAATAA [XGTACX_site575]	11.6 ± 0.94
AAAAAAAAAAGACATGCATACGCTAATTTTTAGTTG [TGCATGCA_site300]	10 ± 0.13
ATATATTTTTAAAAAAATTAAGAATTTTACATCTCC [CACACA_negctrl_site1450]	9.81 ± 0.014
TATAAAAAAAACGAAAAAAAAAAAAAAAATACAGGA [TGCATGCA_negctrl_site585]	10 ± 0.26
AAAAAAAAAAGACACACACACAAAAAAAGATATATA [CACACA_site6645]	9.975 ± 0.007
TAGAATAAGATAGATATACACACCATTATAAATATA [CACACA_site2500]	9.82 ± 0.13
TTACAAAATAAGAGGCACAAACACAAAAAAAAATAA [CACACA_negctrl_site574]	10.2 ± 0.15
TTGTTCAAACAAAAAATAAAATAATTGAAAATAAAA [CACACA_negctrl_site812]	9.745 ± 0.092
GTAACTTTATTATACTGTACTATTATATAAGCACAC [XGTACX_site2859]	11.4 ± 0.91
ATAAAAATATTACGCACACACAAACTTATTCATTAT [CACACA_site1969]	10.3 ± 0.2
TGTAAAAAATTTAACACACACATATATATATATATA [CACACA_site2585]	9.86 ± 0.071
ATTACAATATATACGTGTACATATTACCACCGCTAC [XGTACX_site2308]	11.4 ± 0.67
TGGGTAAACAAACACACACACATATATATATATATA [CACACA_site1992]	10.1 ± 0.25
AAATATATATATAGTTGTACATATATCGTATATATT [XGTACX_site7867]	11.2 ± 0.78
TTCACTAATAAATACGCACACATATACAGATATATA [CACACA_site4887]	10.4 ± 0.4
GGATGCACACAAAAGGGTACATAAGAAAAAAACAGG [XGTACX_site8570]	11.5 ± 0.6
CACGCACAGATATATACACACTTTTATTTAAATAAC [CACACA_site6852]	10.3 ± 0.18
AAAAATAAAATGGACACACACGTTCAAATTTAGATT [CACACA_site5186]	10.7 ± 0.43
AAAAAAAAATATATAAACACACATATTTATATACAC [GTGCAC_negctrl_site545]	9.65 ± 0.15
TTATTTAAATAATATGTACACACATTTAAAAAATTA [CACACA_site8912]	11.6 ± 0.95
